# Data taken from the supplement of paper PMC8728848.
# The list shows a part of the results.
# B1: CFEM-PPm (Pichia pastoris), F2QPV1 (protein)
# chain: AVATPPACLLACAAEVVKESSDCDALNNIQCICENEGSAIHACLESTCPDGLSSTALQSFEDVCE
# Columns and labels:
# Assay in all cases: glycan array binding signal (z-score within array); higher = stronger binding
# Conditions in all cases: glycan notation: IUPAC condensed, linker removed
# [1] = biological target: Glc(b1-4)Glc
# Summary of the method: (§1)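 Glycan array binding is given as a within-array Z-score, which can be read as non-binding when negative. The arrays, 3228 of them, came from the Consortium for Functional Glycomics database and were retained only where the protein sequence was available. Z-scores were averaged across arrays of the same protein sequence at different concentrations or buffers and across linkers.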
# [2] = biological target: Glc(b1-6)Glc
# Summary of the method: as §1
# [3] = biological target: GlcA(b1-3)Gal
# Summary of the method: as §1
# [4] = biological target: GlcA(b1-3)GlcNAc
# Summary of the method: as §1
# [5] = biological target: GlcA(b1-6)Gal
# Summary of the method: as §1
# [6] = biological target: GlcA3S(b1-3)Gal(b1-4)GlcNAc(b1-2)Man
# Summary of the method: as §1
# [7] = biological target: GlcA3S(b1-3)Gal(b1-4)GlcNAc(b1-3)Gal(b1-4)Glc
# Summary of the method: as §1
# [8] = biological target: GlcNAc(a1-3)Gal(b1-4)GlcNAc
# Summary of the method: as §1
# [9] = biological target: GlcNAc(a1-4)Gal(b1-3)GlcNAc
# Summary of the method: as §1
# [10] = biological target: GlcNAc(a1-4)Gal(b1-4)GalNAc
# Summary of the method: as §1
# [11] = biological target: GlcNAc(a1-4)Gal(b1-4)GlcNAc
# Summary of the method: as §1
# [12] = biological target: GlcNAc(a1-4)Gal(b1-4)GlcNAc(b1-3)Gal(b1-4)Glc
# Summary of the method: as §1
# [13] = biological target: GlcNAc(a1-4)Gal(b1-4)GlcNAc(b1-3)Gal(b1-4)GlcNAc
# Summary of the method: as §1
# [14] = biological target: GlcNAc(a1-4)Gal(b1-4)GlcNAc(b1-3)Gal(b1-4)GlcNAc(b1-3)Gal(b1-4)GlcNAc
# Summary of the method: as §1
# [15] = biological target: GlcNAc(a1-4)Gal(b1-4)GlcNAc(b1-3)Gal(b1-4)[Fuc(a1-3)]GlcNAc(b1-3)Gal(b1-4)[Fuc(a1-3)]GlcNAc
# Summary of the method: as §1
# [16] = biological target: GlcNAc(a1-6)Gal(b1-4)GlcNAc
# Summary of the method: as §1
# [17] = biological target: GlcNAc(b1-2)Gal(b1-3)GalNAc
# Summary of the method: as §1
# [18] = biological target: GlcNAc(b1-2)Man(a1-3)[GlcNAc(b1-2)Man(a1-6)]Man(b1-4)GlcNAc(b1-4)GlcNAc
# Summary of the method: as §1
# [19] = biological target: GlcNAc(b1-2)Man(a1-3)[GlcNAc(b1-2)Man(a1-6)]Man(b1-4)GlcNAc(b1-4)[Fuc(a1-6)]GlcNAc
# Summary of the method: as §1
# [20] = biological target: GlcNAc(b1-2)Man(a1-3)[GlcNAc(b1-4)][GlcNAc(b1-2)Man(a1-6)]Man(b1-4)GlcNAc(b1-4)GlcNAc
# Summary of the method: as §1
# [21] = biological target: GlcNAc(b1-2)Man(a1-3)[GlcNAc(b1-4)][GlcNAc(b1-2)Man(a1-6)]Man(b1-4)GlcNAc(b1-4)[Fuc(a1-6)]GlcNAc
# Summary of the method: as §1
# [22] = biological target: GlcNAc(b1-2)[GlcNAc(b1-4)]Man(a1-3)[GlcNAc(b1-2)Man(a1-6)]Man(b1-4)GlcNAc(b1-4)GlcNAc
# Summary of the method: as §1
# [23] = biological target: GlcNAc(b1-2)[GlcNAc(b1-4)]Man(a1-3)[GlcNAc(b1-4)][GlcNAc(b1-2)Man(a1-6)]Man(b1-4)GlcNAc(b1-4)GlcNAc
# Summary of the method: as §1
# [24] = biological target: GlcNAc(b1-2)[GlcNAc(b1-4)]Man(a1-3)[GlcNAc(b1-4)][GlcNAc(b1-2)[GlcNAc(b1-6)]Man(a1-6)]Man(b1-4)GlcNAc(b1-4)GlcNAc
# Summary of the method: as §1
# [25] = biological target: GlcNAc(b1-2)[GlcNAc(b1-4)]Man(a1-3)[GlcNAc(b1-4)][GlcNAc(b1-2)[GlcNAc(b1-6)]Man(a1-6)]Man(b1-4)GlcNAc(b1-4)[Fuc(a1-6)]GlcNAc
# Summary of the method: as §1
# [26] = biological target: GlcNAc(b1-2)[GlcNAc(b1-6)]Man(a1-6)[GlcNAc(b1-2)Man(a1-3)]Man(b1-4)GlcNAc(b1-4)GlcNAc
# Summary of the method: as §1
# [27] = biological target: GlcNAc(b1-2)[GlcNAc(b1-6)]Man(a1-6)[GlcNAc(b1-2)Man(a1-3)]Man(b1-4)GlcNAc(b1-4)[Fuc(a1-6)]GlcNAc
# Summary of the method: as §1
# [28] = biological target: GlcNAc(b1-2)[GlcNAc(b1-6)]Man(a1-6)[GlcNAc(b1-4)][GlcNAc(b1-2)Man(a1-3)]Man(b1-4)GlcNAc(b1-4)GlcNAc
# Summary of the method: as §1
# [29] = biological target: GlcNAc(b1-3)Fuc
# Summary of the method: as §1
# [30] = biological target: GlcNAc(b1-3)Gal
# Summary of the method: as §1
# [31] = biological target: GlcNAc(b1-3)Gal(b1-3)GalNAc
# Summary of the method: as §1
# [32] = biological target: GlcNAc(b1-3)Gal(b1-4)Glc
# Summary of the method: as §1
# [33] = biological target: GlcNAc(b1-3)Gal(b1-4)GlcNAc
# Summary of the method: as §1
# [34] = biological target: GlcNAc(b1-3)Gal(b1-4)GlcNAc(b1-2)Man(a1-3)[GlcNAc(b1-3)Gal(b1-4)GlcNAc(b1-2)Man(a1-6)]Man(b1-4)GlcNAc(b1-4)GlcNAc
# Summary of the method: as §1
# [35] = biological target: GlcNAc(b1-3)Gal(b1-4)GlcNAc(b1-2)Man(a1-3)[GlcNAc(b1-3)Gal(b1-4)GlcNAc(b1-2)Man(a1-6)]Man(b1-4)GlcNAc(b1-4)[Fuc(a1-6)]GlcNAc
# Summary of the method: as §1
# [36] = biological target: GlcNAc(b1-3)Gal(b1-4)GlcNAc(b1-2)[GlcNAc(b1-3)Gal(b1-4)GlcNAc(b1-6)]Man(a1-6)[GlcNAc(b1-3)Gal(b1-4)GlcNAc(b1-2)Man(a1-3)]Man(b1-4)GlcNAc(b1-4)GlcNAc
# Summary of the method: as §1
# [37] = biological target: GlcNAc(b1-3)Gal(b1-4)GlcNAc(b1-3)Gal(b1-4)GlcNAc
# Summary of the method: as §1
# [38] = biological target: GlcNAc(b1-3)Gal(b1-4)GlcNAc(b1-3)Gal(b1-4)GlcNAc(b1-2)Man(a1-3)[GlcNAc(b1-3)Gal(b1-4)GlcNAc(b1-3)Gal(b1-4)GlcNAc(b1-2)Man(a1-6)]Man(b1-4)GlcNAc(b1-4)GlcNAc
# Summary of the method: as §1
# [39] = biological target: GlcNAc(b1-3)Gal(b1-4)GlcNAc(b1-3)Gal(b1-4)GlcNAc(b1-2)Man(a1-3)[GlcNAc(b1-3)Gal(b1-4)GlcNAc(b1-3)Gal(b1-4)GlcNAc(b1-2)Man(a1-6)]Man(b1-4)GlcNAc(b1-4)[Fuc(a1-6)]GlcNAc
# Summary of the method: as §1
# [40] = biological target: GlcNAc(b1-3)Gal(b1-4)GlcNAc(b1-3)Gal(b1-4)GlcNAc(b1-2)[GlcNAc(b1-3)Gal(b1-4)GlcNAc(b1-3)Gal(b1-4)GlcNAc(b1-6)]Man(a1-6)[GlcNAc(b1-3)Gal(b1-4)GlcNAc(b1-3)Gal(b1-4)GlcNAc(b1-2)Man(a1-3)]Man(b1-4)GlcNAc(b1-4)[Fuc(a1-6)]GlcNAc
# Summary of the method: as §1
# [41] = biological target: GlcNAc(b1-3)Gal(b1-4)GlcNAc(b1-3)Gal(b1-4)GlcNAc(b1-3)Gal(b1-4)GlcNAc(b1-2)Man(a1-3)[GlcNAc(b1-3)Gal(b1-4)GlcNAc(b1-3)Gal(b1-4)GlcNAc(b1-3)Gal(b1-4)GlcNAc(b1-2)Man(a1-6)]Man(b1-4)GlcNAc(b1-4)GlcNAc
# Summary of the method: as §1
# [42] = biological target: GlcNAc(b1-3)Gal(b1-4)GlcNAc(b1-3)Gal(b1-4)GlcNAc(b1-3)Gal(b1-4)GlcNAc(b1-2)Man(a1-3)[GlcNAc(b1-3)Gal(b1-4)GlcNAc(b1-3)Gal(b1-4)GlcNAc(b1-3)Gal(b1-4)GlcNAc(b1-2)Man(a1-6)]Man(b1-4)GlcNAc(b1-4)[Fuc(a1-6)]GlcNAc
# Summary of the method: as §1
# [43] = biological target: GlcNAc(b1-3)Gal(b1-4)GlcNAc(b1-3)Gal(b1-4)GlcNAc(b1-3)Gal(b1-4)GlcNAc(b1-2)[GlcNAc(b1-3)Gal(b1-4)GlcNAc(b1-3)Gal(b1-4)GlcNAc(b1-3)Gal(b1-4)GlcNAc(b1-6)]Man(a1-6)[GlcNAc(b1-3)Gal(b1-4)GlcNAc(b1-3)Gal(b1-4)GlcNAc(b1-3)Gal(b1-4)GlcNAc(b1-2)Man(a1-3)]Man(b1-4)GlcNAc(b1-4)[Fuc(a1-6)]GlcNAc
# Summary of the method: as §1
# [44] = biological target: GlcNAc(b1-3)Gal(b1-4)GlcNAc(b1-3)Gal(b1-4)GlcNAc(b1-3)Gal(b1-4)GlcNAc(b1-3)Gal(b1-4)GlcNAc(b1-2)Man(a1-3)[GlcNAc(b1-3)Gal(b1-4)GlcNAc(b1-3)Gal(b1-4)GlcNAc(b1-3)Gal(b1-4)GlcNAc(b1-3)Gal(b1-4)GlcNAc(b1-2)Man(a1-6)]Man(b1-4)GlcNAc(b1-4)GlcNAc
# Summary of the method: as §1
# [45] = biological target: GlcNAc(b1-3)Gal(b1-4)GlcNAc(b1-3)Gal(b1-4)GlcNAc(b1-3)Gal(b1-4)GlcNAc(b1-3)Gal(b1-4)GlcNAc(b1-2)Man(a1-3)[GlcNAc(b1-3)Gal(b1-4)GlcNAc(b1-3)Gal(b1-4)GlcNAc(b1-3)Gal(b1-4)GlcNAc(b1-3)Gal(b1-4)GlcNAc(b1-2)Man(a1-6)]Man(b1-4)GlcNAc(b1-4)[Fuc(a1-6)]GlcNAc
# Summary of the method: as §1
binder,measurement,setting,value
B1,glycan array binding signal (z-score),[1],0.294
same,glycan array binding signal (z-score),[2],-0.146
same,glycan array binding signal (z-score),[3],-0.173
same,glycan array binding signal (z-score),[4],-0.094
same,glycan array binding signal (z-score),[5],2.41
same,glycan array binding signal (z-score),[6],-0.366
same,glycan array binding signal (z-score),[7],-0.062
same,glycan array binding signal (z-score),[8],-0.343
same,glycan array binding signal (z-score),[9],-0.43
same,glycan array binding signal (z-score),[10],0.089
same,glycan array binding signal (z-score),[11],-0.205
same,glycan array binding signal (z-score),[12],-0.355
same,glycan array binding signal (z-score),[13],-0.143
same,glycan array binding signal (z-score),[14],-0.247
same,glycan array binding signal (z-score),[15],0.146
same,glycan array binding signal (z-score),[16],0.716
same,glycan array binding signal (z-score),[17],0.172
same,glycan array binding signal (z-score),[18],-0.317
same,glycan array binding signal (z-score),[19],-0.277
same,glycan array binding signal (z-score),[20],-0.372
same,glycan array binding signal (z-score),[21],-0.351
same,glycan array binding signal (z-score),[22],-0.275
same,glycan array binding signal (z-score),[23],-0.031
same,glycan array binding signal (z-score),[24],-0.422
same,glycan array binding signal (z-score),[25],-0.298
same,glycan array binding signal (z-score),[26],-0.28
same,glycan array binding signal (z-score),[27],-0.245
same,glycan array binding signal (z-score),[28],-0.307
same,glycan array binding signal (z-score),[29],-0.121
same,glycan array binding signal (z-score),[30],-0.249
same,glycan array binding signal (z-score),[31],-0.209
same,glycan array binding signal (z-score),[32],-0.083
same,glycan array binding signal (z-score),[33],0.308
same,glycan array binding signal (z-score),[34],-0.281
same,glycan array binding signal (z-score),[35],-0.225
same,glycan array binding signal (z-score),[36],0.338
same,glycan array binding signal (z-score),[37],-0.289
same,glycan array binding signal (z-score),[38],0.35
same,glycan array binding signal (z-score),[39],0.138
same,glycan array binding signal (z-score),[40],-0.006
same,glycan array binding signal (z-score),[41],-0.328
same,glycan array binding signal (z-score),[42],0.205
same,glycan array binding signal (z-score),[43],-0.184
same,glycan array binding signal (z-score),[44],-0.319
same,glycan array binding signal (z-score),[45],0.013
